# Experimental data reported in publication PMC5836133.
# The other results are listed elsewhere or left out. At the low end of the ranking the order means little.
# System: T1, GST-NbGlk1(82-244)
# T1 sequence: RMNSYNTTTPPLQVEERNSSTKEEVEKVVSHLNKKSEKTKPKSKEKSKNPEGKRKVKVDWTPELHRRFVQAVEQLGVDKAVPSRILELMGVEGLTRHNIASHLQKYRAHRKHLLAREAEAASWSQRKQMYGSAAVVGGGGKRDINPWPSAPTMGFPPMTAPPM
# Assay: protein-binding microarray;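 further: rank-based score ranging −0.5 to +0.5 with E above 0.45 taken as significant binding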
# Conditions: NbGlk1 is a Golden2-like transcription factor of Nicotiana benthamiana; high values mean tight binding; most listed sequences are background and not binding sites; double strand, one strand shown
row,Sequence,binding signal [E-score]
1,ACTTACCT,-0.0614
2,ATTTGAGA,0.161
3,AAATATGC,0.234
4,AGTGGTTG,-0.108
5,AATCCTCA,0.376
6,CAACCCCA,-0.0825
7,AAATTCGA,0.219
8,AATATGTA,0.131
9,AAAGAGGA,-0.0804
10,ACACCTGT,-0.117
11,CAGCACCG,-0.178
12,AAATTACT,0.184
13,AACCCGGA,0.0146
14,ACGACTAA,-0.0352
15,ACTGGGTC,-0.288
16,AGCAGCTA,-0.222
17,AGATGGGC,-0.175
18,AGCCTCTG,-0.199
19,ACGCATAG,-0.117
20,ACGAGACG,-0.0818
21,AGAAGGCC,-0.259
22,ACAACGAC,-0.0241
23,AATGTCTA,0.0312
24,ATGAGGAG,-0.119
25,ACCTAGAG,-0.218

row,Sequence,binding signal [E-score]
1,ATGGAGGA,-0.117
2,AGATCCCT,0.298
3,AGTGTGTA,0.0709
4,AATTACGG,0.251
5,ACAGCTGC,-0.27
6,ACCACTAT,-0.0442
7,AACAGTAT,0.162
8,ATTGGAAG,0.000771
9,AATCGATC,0.26
10,ATGAGACC,-0.272
11,AAAGCAAT,0.27
12,AAGGGAGT,-0.153
13,ACCATTAA,0.0382
14,AGCTCGCG,-0.227
15,ACGCGTGC,-0.0475
16,AGTGTTCG,-0.149
17,ACGTGAGG,-0.00877
18,AGTACAAC,-0.0232
19,AATACAGC,0.0384
20,AAACTTGG,-0.179
21,AGAGACGA,-0.113
22,AGAACGGA,0.0824
23,AGTCTAGG,-0.301
24,ATGAGATA,0.209
25,AGACGACC,-0.348

row,Sequence,binding signal [E-score]
1,ACAGCTAG,-0.108
2,AAACGGTG,-0.0203
3,ATCACGCG,0.18
4,AACGCTTC,-0.036
5,ACCGCGCC,-0.0199
6,ACTCAAAT,0.153
7,AGCTAATC,-0.0827
8,ATACCTGG,-0.0932
9,CACACAGG,-0.0882
10,CAGCGACA,-0.135
11,ACTGCACC,-0.211
12,AGATCGTC,0.336
13,AGCGCCAT,-0.238
14,ATTTTGGC,0.186
15,AAGAGCTG,-0.178
16,AGAGACAG,-0.116
17,AGATTGTA,0.332
18,AACGCATG,-0.168
19,ATAAGGCG,-0.0665
20,ACGAAGTC,-0.269
21,AAAAGCGG,-0.0996
22,AAATCCCG,0.435
23,ACCGATGA,0.0262
24,AGGGTAAG,-0.183
25,AGAGCCCC,-0.341

row,Sequence,binding signal [E-score]
1,AGCGAAGC,-0.325
2,ATTCGACA,0.18
3,AGGTACTG,-0.0565
4,AAGATGGG,0.0243
5,ACCTTGTA,-0.0973
6,CACGGTCA,-0.146
7,ACTCTGAG,-0.105
8,ATTTGAAC,0.183
9,AAGAATAC,0.0588
10,AGCACATG,-0.0925
11,AGTGTCCA,-0.124
12,CACCAGGG,-0.193
13,AGGTCCGG,-0.231
14,ACAAGTGA,0.00336
15,ATCTAGGA,0.307
16,AGGGCTAC,-0.175
17,ATCTCAAA,0.337
18,ACTCTGTA,-0.0395
19,CACTAATG,-0.0191
20,ATTATAGA,0.177
21,AGGCTTTA,-0.112
22,AATCTTGG,0.386
23,AGCGTTGG,-0.139
24,CAACTGCA,-0.0599
25,ACCACGTG,-0.055

row,Sequence,binding signal [E-score]
1,CAAACTGG,-0.155
2,ATATTAGG,0.0684
3,AGCGCACC,-0.26
4,ACAAGGGA,-0.14
5,AAATTGGG,0.00305
6,AGACAATA,0.0353
7,AAAGCTTT,-0.192
8,AGTCCCAG,-0.168
9,AAGTGCCA,-0.23
10,AGCGGCGC,-0.221
11,AGCCCGCG,-0.243
12,CAGCACAG,-0.202
13,AGCACAAG,-0.0517
14,AAGGATTG,0.247
15,ATCCTTAG,0.108
16,AATGCAGC,-0.0814
17,AAACATGA,0.075
18,AATCAATC,0.252
19,ATTTTGCC,0.208
20,AGTAGTCC,-0.11
21,ATCCTGTA,0.304
22,ACTACAAG,-0.0898
23,ATCACTAA,0.0696
24,CAGATGGG,-0.194
25,ACCCCGAT,0.199

row,Sequence,binding signal [E-score]
1,ATGGGCTA,-0.0362
2,ACGAAGTG,-0.18
3,ATATCCTG,0.373
4,AAATCATT,0.223
5,AAGGGCAG,-0.22
6,ATGTCCGC,-0.216
7,ACCGGAAG,-0.265
8,ACGTTACG,0.0571
9,AGACGAAT,0.00696
10,AAACTCGC,-0.0527
11,ACCAGCGG,-0.232
12,AGAGCTAA,-0.0588
13,AGGACATC,-0.14
14,ATGGCTCA,-0.0608
15,AGCAGAAA,-0.0794
16,ATCACTAC,0.137
17,AAGCGAGT,-0.0603
18,AGGCGCAA,0.0251
19,ACTCAATC,-0.00742
20,ATGTTTGA,0.0264
21,ACCGTGAT,0.143
22,AGCAATAA,-0.0445
23,AACGAGTC,-0.134
24,ATCATCGC,0.0336
25,AATACTGG,0.0731

row,Sequence,binding signal [E-score]
1,CAATATTA,0.162
2,CACAGAGA,0.19
3,ACAATCGA,0.201
4,ATACGACA,0.125
5,ACCAAAGC,-0.153
6,ATCGGCTA,0.0825
7,ACTGAGAA,0.0409
8,AAAGGGGT,-0.171
9,AAGCAACT,-0.138
10,ACGAACCG,-0.109
11,AACAACCG,-0.175
12,AGTGCGAA,0.0621
13,ACGGTGTC,-0.219
14,ATAGTCAC,-0.156
15,AATACCGG,-0.0435
16,AAGCTGCA,-0.161
17,ACGACCTA,-0.151
18,AGACCTAT,-0.0733
19,ATAGTACA,0.0403
20,AATTTCGG,0.245
21,ACGCAGGA,-0.1
22,ATTCGGCG,0.122
